# Measured values taken from PubChem BioAssay AID1645882 (National Center for Advancing Translational Sciences (NCATS), 2021).
# Hit rate of the full screen: of about 16,000 compounds, about 120 (0.75%) were called active. Roughly 4% stayed inconclusive and do not appear here. Calls come from the whole dose curve; as a rule, active = well fitted inhibition curve with a large enough effect; inconclusive = small, poorly fitted or top-dose-only effect; inactive = no such curve, though single readings can be large or run the other way. This is one part of the list.
# Biological target: Rap guanine nucleotide exchange factor 3 (Homo sapiens) (UniProt O95398)
# Assay: Validation qHTS for antagonist of cAMP-regulated guanine nucleotide exchange factor 3 (EPAC1); note: nearly all actives have a fitted effect of over 75% in size;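 for activity change, negative = inhibition: plate controls were DMSO for no effect and ATA control for full effect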
# Conditions: EPAC1 Rap1B-BODIPY-GDP exchange, fluorescence; series mostly up to 150 µM; activity change, negative = inhibition: at the top concentration
# Procedure, shortened: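 Nucleotide exchange followed as fluorescence loss when BODIPY-GDP leaves Rap1B (480 nm excitation, 540 nm emission), read at 5 min intervals over 30 min. Reaction: 100 nM EPAC1, 250 nM RAP1B-BODIPY-GDP, 50 uM GDP; ATA and DMSO define normalization.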
# Potency is the fitted concentration of half-maximal effect.
# Sequence of UniProt O95398 (O95398 whole entry, looked up): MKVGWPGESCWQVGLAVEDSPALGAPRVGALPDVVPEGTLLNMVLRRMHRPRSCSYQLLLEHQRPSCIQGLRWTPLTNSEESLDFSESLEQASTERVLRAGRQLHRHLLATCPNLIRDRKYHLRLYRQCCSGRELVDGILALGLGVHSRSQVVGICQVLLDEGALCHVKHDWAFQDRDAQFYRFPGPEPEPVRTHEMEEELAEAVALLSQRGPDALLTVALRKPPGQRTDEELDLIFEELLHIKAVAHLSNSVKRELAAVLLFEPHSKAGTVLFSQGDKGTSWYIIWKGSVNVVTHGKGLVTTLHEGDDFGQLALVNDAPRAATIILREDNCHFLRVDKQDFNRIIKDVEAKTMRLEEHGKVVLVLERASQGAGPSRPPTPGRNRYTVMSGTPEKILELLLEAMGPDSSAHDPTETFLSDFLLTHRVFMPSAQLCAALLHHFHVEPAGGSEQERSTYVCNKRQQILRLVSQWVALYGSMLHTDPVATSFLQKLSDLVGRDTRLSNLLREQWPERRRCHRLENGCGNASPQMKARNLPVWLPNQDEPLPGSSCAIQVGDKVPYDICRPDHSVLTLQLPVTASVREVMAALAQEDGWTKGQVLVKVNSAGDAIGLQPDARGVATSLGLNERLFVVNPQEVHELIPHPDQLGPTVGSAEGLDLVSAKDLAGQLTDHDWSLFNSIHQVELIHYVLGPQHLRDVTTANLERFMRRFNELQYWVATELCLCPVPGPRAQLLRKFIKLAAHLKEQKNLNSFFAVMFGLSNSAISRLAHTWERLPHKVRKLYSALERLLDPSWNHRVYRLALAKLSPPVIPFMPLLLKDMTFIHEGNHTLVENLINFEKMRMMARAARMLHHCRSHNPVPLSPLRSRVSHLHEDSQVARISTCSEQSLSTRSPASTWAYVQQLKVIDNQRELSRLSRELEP
Compound,"activity change, negative = inhibition",Potency
CC1(C)C=Cc2cc3ccc(=O)oc3cc2O1,inactive: 1.59%,
NCCOB(c1ccccc1)c1ccccc1,inactive,
Nc1nc(Nc2ccccc2)nc2c1ncn2[C@@H]1O[C@@H](CO)[C@H](O)[C@H]1O,inactive: -12.9%,
COC(=O)[C@@H]1C[C@H](NC(=O)c2ccccc2C(F)(F)F)CN1Cc1cccc(O)c1,inactive: 38.7%,
Cc1ccccc1-c1nccc(NCc2cccnc2)n1,inactive: 0.278%,
COc1cccc(Cn2c(=O)c(-c3cccs3)nc3cnc(Nc4cccc(OC)c4)nc32)c1,inactive: 108%,
C[C@@H]1CN(Cc2ccc3c(c2)CN(Cc2cccn2-c2ccc(Cl)cn2)CCO3)C[C@H](C)O1,inactive: 24%,
COC(=O)c1sccc1S(=O)(=O)N1CCC(n2c(CC3CCCC3)nc3cccnc32)CC1,inactive: -5.73%,
N[C@@H](CCS(=O)O)C(=O)O,inactive,
O=c1[nH]cnc2c1ncn2[C@@H]1O[C@H](CO)[C@@H](O)[C@H]1O,inactive: 7%,
CC(C)NC(=O)N1CC[C@@]2(CCCN(S(=O)(=O)c3ccccc3)C2)C1,inactive: -5.15%,
COc1ccc(Oc2ncc3nc(-c4ccccc4)c(=O)n(C[C@H]4CCCO4)c3n2)cc1,inactive: 5.41%,
COc1cc2c(cc1O)CCN[C@]21CS[C@@H]2c3c(OC(C)=O)c(C)c4c(c3[C@H](COC1=O)N1[C@@H]2[C@H]2c3c(cc(C)c(OC)c3O)C[C@@H]([C@@H]1O)N2C)OCO4,inactive: -15.3% [at 320 µM],
CCCCOc1cc(CC2CNC(=O)N2)ccc1OC (configuration not stated),inactive,
Cc1cccc(CNc2ccnc(-c3ccccc3CN(C)C)n2)c1,inactive: 27%,
CC(=O)OC1C[C@]2(C)C(C(C)=O)CCC2C2CCC3=CC(=O)CC[C@@]3(C)C12 (some centres not stated),inactive: 4.22%,
O=C1NC(=O)/C(=C/c2ccc3c(c2)OC(F)(F)O3)S1,inactive: 20.2% [at 75.8 µM],
COc1cc(-c2noc(C)c2C#Cc2ccsc2)cc(OC)c1OC,inactive: -0.091%,
CC(C)Cn1c(=O)n(C)c(=O)c2[nH]cnc21,inactive,
CN(C)c1ncc2ncc(=O)n(Cc3cccs3)c2n1,inactive: 12%,
COCCN1CCN(C(=O)c2cnn(-c3nccc(-c4cc5ccccc5o4)n3)c2C2CC2)CC1,inactive: 15.2%,
CC(C)=CCC[C@@](C)(O)[C@H]1CC=C(C)CC1,inactive: -3.4%,

Compound,"activity change, negative = inhibition",Potency
CC1(C)C=CC(=O)[C@]2(C)C1CC(=O)[C@]1(C)C2CC[C@@]2(C)C(c3ccoc3)OC(=O)C3OC321 (some centres not stated),inactive: -7.18%,
O=C(c1csnn1)N1CCC2(CCN(Cc3ccccc3)CC2)CC1,inactive: 24.4%,
O=C(c1cnccn1)N1CCC2(CCCN(Cc3ccccc3)C2)CC1,inactive: 1.71%,
O=c1cnc2cnc(OCc3ccccc3)nc2n1Cc1ccc(F)cc1,inactive: -17.7%,
CN(C)c1ccc(/C=C/c2ccnc3c(O)ccc(O)c23)cc1,inactive: 14.6%,
O=C1C(=O)c2ccccc2C(O)=C1C1CCC(c2ccc(Cl)cc2)CC1 (configuration not stated),inactive,
O=S(=O)(/C=C/c1ccccc1)N1CCC(n2c(C3CCCO3)nc3cccnc32)CC1 (configuration not stated),inactive: 6.55%,
NC(Cc1c[nH]c2ccccc12)C(=O)O (configuration not stated),inactive: 2.39%,
CC(=O)N[C@@H](C=O)[C@@H](O)[C@H](O)[C@H](O)CO,inactive: 22.8%,
CCS(=O)(=O)N1CCC[C@H]2CN3CCc4cc(OC)ccc4[C@@H]3C[C@@H]21,inactive,
O=C(NCCc1ccccc1)[C@@H]1CC=C[C@@H]2CCN(C3CC3)C(=O)[C@@H]21,inactive: 8.23%,
COc1ccc(NC(=O)N2CCC3(CC2)CCN(C(=O)c2cnccn2)CC3)cc1,inactive: 13.5%,
COc1ccccc1C1CN(Cc2c(C)nn(C)c2Cl)Cc2ccccc2O1 (configuration not stated),inactive: 15.4%,
O=C(CN1CCNCC1)NC1CCCCC1,inactive: 12.9%,
Cc1ccccc1CN1[C@H](C)[C@H](c2ccccc2)OCCS1(=O)=O,inactive: 2.86%,
COc1ccc(-n2c(=O)cnc3cnc(Oc4ccccc4)nc32)cc1,inactive: 2.73%,
Cc1c(C(=O)NCC(C)(C)CN(C)C)cnn1-c1nccc(-c2ccccc2F)n1,inactive: 15.3%,
O=c1[nH]c(=O)c2ccccc2o1,inactive: 4.18%,
O=S1(=O)c2cccc3cccc(c23)N1CCCN1CCN(c2ccc(F)cc2)CC1,inactive: 1.62%,
COc1cccc(CN2CCC3(CCC(CNC(=O)c4ccccc4)O3)CC2)c1 (configuration not stated),inactive: 3.81%,
Nc1ncnc2c1ncn2C1CCCO1 (configuration not stated),inactive,
O=C1CC[C@H](O)CCN1[C@H](CSc1ccccc1)Cc1ccccc1,inactive: 15.5%,

Compound,"activity change, negative = inhibition",Potency
COCC1CCCN(Cc2ccc3c(c2)CN(C(=O)c2cn4ccc(C)cc4n2)CCO3)C1 (configuration not stated),inactive: 16%,
Cc1cnc(C)c(-c2ccc(F)c3c2OC(CNC(=O)/C=C/c2cccs2)C3)n1 (configuration not stated),inactive: -10.8%,
CCNc1ncc2nc(-c3ccccc3)c(=O)n(C[C@H]3CCCO3)c2n1,inactive: 13%,
Cc1cc(Nc2ccccc2C(=O)O)ccc1Cl,inactive: 23.7%,
O=Cc1ccc(O)cc1,inactive: 23.5%,
N[C@@H](Cc1ccc(O)c(I)c1)C(=O)O,inactive: -7.65% [at 75.8 µM],
OC[C@H]1O[C@H](n2cnc3c(NC4CCCC4)nc(Cl)nc32)[C@@H](O)[C@@H]1O,inactive: 9.08%,
Clc1cccc[n+]1CCCC[n+]1ccccc1Cl,inactive: 7.67%,
O=C(c1cnccn1)N1CCC[C@@]2(CCN(Cc3cc(C(F)(F)F)cc(C(F)(F)F)c3)C2)C1,inactive: -13.1%,
Nc1ccc(S(=O)(=O)Nc2ccccn2)cc1,inactive,
CN1[C@@H]2CC[C@H]1CC(OC(c1ccccc1)c1ccccc1)C2 (some centres not stated),inactive,
Cc1c(CCO)sc[n+]1CC(=O)c1ccc(F)cc1,inactive: 7.71%,
O=C(CCN1CCC(c2ccccc2)C1)c1ccc2c(c1)OCCO2 (configuration not stated),inactive: 12.5%,
C[C@H](NC(=O)OC(C)(C)C)C(=O)c1ccco1,inactive: 0.368%,
c1ccc(CC[n+]2ccncc2)cc1,inactive: -0.642%,
c1ccc2nc(C3=NCCN3)ccc2c1,inactive,
C=C[C@@H]1c2cc(C)ccc2N(S(=O)(=O)c2ccc(C)cc2)[C@H](c2ccccc2)C1(C#N)C#N,inactive: -0.615%,
COc1ccc(C(=O)N2CCC3(CC2)CN(C(=O)Nc2cccc(C#N)c2)C3)cc1,inactive: 23.4%,
CC12CCCC(O)(C1)C1CC(C)(C)C1CC2 (configuration not stated),inactive: -2.91%,
CC(C)(C)c1ccc(C(O)CCCN2CCC(C(O)(c3ccccc3)c3ccccc3)CC2)cc1 (configuration not stated),inactive,
CC(COc1ccccc1)NC(C)C(O)c1ccc(O)cc1 (configuration not stated),inactive,
Cc1cc(=O)oc2c(O)c(O)ccc12,inactive: 1.89%,

Compound,"activity change, negative = inhibition",Potency
N#Cc1cccc(-c2nc3cnc(N4CCOCC4)nc3n(C3CC3)c2=O)c1,inactive: 14.2%,
NCCCNCCSP(=O)(O)O,inactive,
CC[C@@H](C(=O)[C@@H](C)[C@@H](O)[C@H](C)CCc1ccc(C)c(O)c1C(=O)O)[C@H]1O[C@](CC)([C@H]2CC[C@](O)(CC)[C@H](C)O2)C[C@@H]1C,inactive: 9.78%,
O=C(O)CCCC/C=C(\c1ccccc1)c1cccnc1,inactive: 9.21%,
CC[C@]1(c2ncc[nH]2)Cc2ccccc2O1,inactive: 10.2%,
COc1ccc(C(=O)NCC2Cc3cccc(-c4cncnc4)c3O2)c(OC)c1OC (configuration not stated),inactive: -13.9%,
O=C(O)CCC/C=C\C[C@@H]1[C@@H](/C=C/[C@@H](O)COc2cccc(Cl)c2)[C@H](O)C[C@@H]1O,inactive,
c1ccc(Nc2ncnc3ccc(-c4cccnc4)cc23)cc1,inactive: 0.432%,
C[C@@H]1C[C@@H]2[C@H]3CCC4=CC(=O)C=C[C@]4(C)[C@]3(F)[C@@H](O)C[C@@]2(C)[C@@]1(O)C(=O)CO,inactive: 1.78%,
COC(=O)N1CCC2(CCCN(Cc3ccc(C#N)cc3)C2)CC1,inactive: 7.53%,
COC(=O)Oc1ccccc1C(=O)O,inactive: 3.73%,
N#CCCN1CCN(Cc2ccccc2)CCC1=O,inactive: 12.5%,
COC(=O)[C@@H]1CCCN1Cc1ccc2c(c1)CN(Cc1coc3ccccc3c1=O)CCO2,inactive: 23.4%,
COCC(=O)Nc1cc(C(=O)N2CCN(c3ccc(Cl)cn3)CC2)c2c(c1)nc(C1CCC1)n2C,inactive: 9.32%,
S=c1[nH]c2ccccc2s1,inactive,
CC(=O)c1c(O)cc(O)cc1O,inactive: 12.7%,
COCC(=O)N1CCC2(CCN(Cc3ccccc3)CC2)CC1,inactive: 13.5%,
O=C(O)C1(O)CC(O)C(O)C(O)C1 (configuration not stated),inactive: 19%,
COCC(=O)N1CCC[C@@]2(CCN(C(=O)Nc3cccc(F)c3)C2)C1,inactive: 5.96%,
Cc1cc(N(C)C)cc(C)c1/C=C/c1cc[n+](C)c2ccccc12,inactive: 11.3%,
COc1cc(CN2CCCC(n3cc(C(=O)N4CCCCC4)nn3)C2)cc2c1OCO2 (configuration not stated),inactive: 8.49%,
CCCCN1CCCCC1C(=O)Nc1c(C)cccc1C (configuration not stated),inactive: 5.29%,

Compound,"activity change, negative = inhibition",Potency
CCOC(=O)NNc1nncc2ccccc12,inactive,
Cc1cnc(CNc2ncncc2-c2ccccc2Cl)cn1,inactive: -2.39%,
O=C1CC[C@@H](OCc2ccccc2)CCN1CC[C@H](Sc1ccccc1)c1ccccc1,inactive: -3.48%,
O=C(NCc1ccncc1)c1cnn(-c2nccc(-c3cc4ccccc4o3)n2)c1C1CC1,inactive: 13.7%,
CN(C)c1ncc2nc(-c3ccccc3)c(=O)n(CCC#N)c2n1,inactive: 10.5%,
CN1CCCCC1CCN1c2ccccc2Sc2ccc(S(C)=O)cc21 (configuration not stated),inactive,
O=C(NC1CCN(Cc2ccccc2)CC1)c1ccc(I)cc1,inactive,
CC(C)c1ccc2c(c1)c(SC(C)(C)C)c(CC(C)(C)C(=O)O)n2Cc1ccc(Cl)cc1,,active: 28.2 µM
CC(C)C(NC(=O)c1ccoc1)c1nnc2n1CCN(Cc1ccc3c(c1)Cc1ccccc1-3)CC2 (configuration not stated),inactive: -2.82%,
CC(CCC(=O)O)C1CCC2C3CC(O)[C@@H]4CC(O)CC[C@]4(C)C3CC[C@@]12C (some centres not stated),inactive: 1.14%,
CS(=O)(=O)Nc1cccc(-c2cncnc2NCc2cccs2)c1,inactive: 1.29%,
CN(Cc1ccco1)c1ncnc2ccc(-c3ccccc3C(F)(F)F)cc12,inactive: -22.9%,
COc1ccc2[nH]cc(CCNc3ncncc3-c3ccccc3CN(C)C)c2c1,inactive: -7.45%,
O=c1ccc2ccc(O[C@@H]3O[C@H](CO)[C@@H](O)[C@H](O)[C@H]3O)c(O)c2o1,inactive: 7.79%,
CCN(CCO)CCCC(C)Nc1ccnc2cc(Cl)ccc12 (configuration not stated),inactive,
CCC[C@H]1COCCS(=O)(=O)N1Cc1ccccc1,inactive: 21.1%,
C=C(C)C1CC=C(CO)CC1 (configuration not stated),inactive: 8.05%,
Cc1nc(Nc2ncc(C(=O)Nc3c(C)cccc3Cl)s2)cc(N2CCN(CCO)CC2)n1,inactive: 0.311%,
CC(C)CN1CCCC2(CCN(C(=O)c3cnccn3)CC2)C1,inactive: 18%,
